SMILES strings stand for the structures. Whole data set: some 110,000 compounds, median “z-score” near -0.1, cut for the highest 2% near 2. This is one part of the list. Activity calls are given as the source filed them.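 Rule for the calls: active = z-score in the third read window above 3 or below -3; inactive = the rest.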

In the experiment the target is Metabotropic glutamate receptor 8 (Rattus norvegicus) (UniProt P70579). Nature of the experiment: mGluR8 Gi/Go-coupled signaling modulation – cell-based, rat, thallium flux, HTS, primary screen (AID 488969). To be noted: HEK293 rat mGluR8, GIRK (G protein-gated inwardly rectifying potassium channel) thallium flux, FluoZin2; at 10 µM; stronger effect = higher value; submaximal glutamate (EC20) added with thallium.
Sequence of UniProt P70579 (P70579 whole entry, looked up): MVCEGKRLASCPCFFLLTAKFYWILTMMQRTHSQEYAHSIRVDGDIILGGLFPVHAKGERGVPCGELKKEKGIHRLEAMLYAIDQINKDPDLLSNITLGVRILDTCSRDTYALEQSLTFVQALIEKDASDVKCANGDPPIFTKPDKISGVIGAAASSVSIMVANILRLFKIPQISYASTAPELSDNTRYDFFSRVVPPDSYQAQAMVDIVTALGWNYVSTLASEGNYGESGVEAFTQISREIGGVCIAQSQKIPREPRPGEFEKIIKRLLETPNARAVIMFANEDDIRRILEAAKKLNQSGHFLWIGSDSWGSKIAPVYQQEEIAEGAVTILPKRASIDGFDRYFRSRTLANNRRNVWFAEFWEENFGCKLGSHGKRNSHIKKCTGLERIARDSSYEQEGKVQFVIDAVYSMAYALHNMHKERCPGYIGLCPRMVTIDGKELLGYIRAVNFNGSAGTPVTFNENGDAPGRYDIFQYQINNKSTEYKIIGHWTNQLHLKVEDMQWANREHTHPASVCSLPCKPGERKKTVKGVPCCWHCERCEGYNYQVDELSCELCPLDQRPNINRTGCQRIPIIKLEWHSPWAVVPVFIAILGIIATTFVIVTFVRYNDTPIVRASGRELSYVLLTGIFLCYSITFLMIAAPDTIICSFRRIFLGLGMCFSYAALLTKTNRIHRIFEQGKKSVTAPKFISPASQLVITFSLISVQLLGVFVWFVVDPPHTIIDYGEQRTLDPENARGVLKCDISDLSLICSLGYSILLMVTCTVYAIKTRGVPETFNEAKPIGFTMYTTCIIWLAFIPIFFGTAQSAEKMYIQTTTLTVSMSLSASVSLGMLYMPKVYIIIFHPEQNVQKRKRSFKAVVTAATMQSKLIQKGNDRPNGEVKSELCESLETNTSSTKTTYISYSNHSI
As for `O=C(Nc1c(C(=O)Nc2ccc3c(c2)OCCO3)cnn1-c1ccccc1Cl)c1ccco1`, the z-score is -0.203.

As to `Nc1nc(/C=C/c2ccc(F)cc2)nc(-c2ccccc2O)n1`, the z-score was -0.255. With `O=C(CSc1nnc(CNc2ccc(F)cc2)n1Cc1ccccc1)NCc1ccccc1`, the z-score was -0.225. With `Cn1cccc1Cc1nnc(SCC(=O)N2CCCCCC2)n1-c1ccc(F)cc1` the figure was 2.24; with `CN1CCN(C(=O)c2ccccc2N(Cc2ccccc2)S(=O)(=O)c2ccccc2)CC1`, -0.185; with `CC(C)(C)C(=O)Nc1cccc(C(=O)c2cccc(NC(=O)C(C)(C)C)c2)c1`, -0.249. As to `N#Cc1ccc(-c2ccc(OCC(=O)NCC(=O)Nc3ccc(F)c(F)c3F)cc2)cc1`, the z-score amounted to 0.143. To `CN1C(CC(=O)c2ccccc2)CCCC1CC(O)c1ccccc1` (centres undefined) belongs 0.207; to `CCOc1ccc(S(=O)(=O)NCCC(=O)OCN2C(=O)c3ccccc3C2=O)cc1`, -1.07; to `CCOC(=O)Cc1csc(SCC(=O)NC2CCCC(C)C2C)n1` (centres undefined), -0.038.

In the case of `CCOC(=O)c1cc2c(ccn2-c2ccc(F)cc2)n1CC(=O)N1CCN(C(=O)c2ccco2)CC1`, the z-score was 1.02. Turning to `COc1ccc(NC2=NCC(=O)N2c2ccccc2F)cc1`, the z-score was -0.144. Regarding `COC(=O)c1cc2n(n1)CCN(Cc1ccc(F)cc1)C2=O`, the z-score worked out at 0.099. Regarding `COc1ccccc1NC(=O)CSc1nnc(-c2ccc(NC(C)=O)cc2)n1C`, the z-score came out at 1.33. `CCOC(=O)c1ccccc1-n1c(C)cc(C2N=C(N)Nc3nc4ccccc4n32)c1C` (centres undefined) yielded a z-score of 0.131.

For the molecule `CCCCc1ccc(NC(=S)Nc2ccc(Nc3ccc(OC)cc3)cc2)cc1`, the z-score is -0.0123.

With `COc1cc(/C=C2/C(=O)N(c3ccccc3)N=C2C)ccc1OS(=O)(=O)c1ccccc1`, the z-score is -0.322. For the molecule `CCOc1ccc(-c2nnc(NC(=O)CCCOc3cccc(C)c3)o2)cc1`, the z-score is active: 3.62. With `CCNC(=O)CSc1nc2ccccc2c(=O)n1OC`, the z-score was -0.0268. The molecule `Cc1ccccc1Nc1nc(-c2sc(NC(=O)c3cccc(Cl)c3)nc2C)cs1` had a z-score of 0.186. On to `COC(=O)Cc1ccc(NC(=S)NCCCO)cc1`, for which the z-score was found to be 0.00868. `CCN(CC)S(=O)(=O)N1CCC(C(=O)NC2CCCc3ccccc32)CC1` (centres undefined) yielded a z-score of 0.111. `CCCCc1cc(=O)oc2c(CN(C)C)c(O)ccc12` displayed a z-score of 0.0624. With `CN(C)c1ccc(C(=O)c2ccc(N(C)C)c3ccccc23)cc1` the figure was -0.192; with `CC(C)n1c(N2CCN(CC(=O)NCc3cccs3)CC2)nc2ccccc21`, -0.0505; with `CCCC(=O)Nc1ccc(C(=O)NCC(=O)OCC)cc1`, -0.417. To `CC1CCC2(CC1)NC(=O)N(CC(=O)Nc1ccc(N3CCOCC3)cc1)C2=O` (centres undefined) belongs 0.0063; to `CN1CCN(NC(=O)CN2C(=O)/C(=C/c3c(Cl)cccc3Cl)SC2=S)CC1`, 1.28.

For the molecule `CCN(c1ccccc1)S(=O)(=O)c1ccc(OC)c(NC(=O)CNCC(C)O)c1` (centres undefined), the z-score is -0.146. Take `Cc1ccc(-n2c(=O)c3sccc3n(Cc3cc(=O)n4ccccc4n3)c2=O)cc1F`: the z-score was -0.784. In the case of `N#Cc1c(/N=C/c2ccco2)sc2c1CCC2`, the z-score was 0.351. As to `OC(COc1cccc(OCC(O)CN2CCOCC2)c1)CN1CCOCC1` (centres undefined), the z-score is -0.4. Consider `Cc1ccc(S(=O)(=O)NCc2ccc(C(=O)N(C)CCC#N)cc2)cc1`, for which the z-score stood at 0.107. Consider `O=[N+]([O-])c1nn(-c2ccccc2)n(O)c1=NCc1ccc2c(c1)OCO2`, for which the z-score is -0.00428. As for `COc1ccc(N(CC(=O)Nc2cccc([N+](=O)[O-])c2C)S(C)(=O)=O)cc1OC`, the z-score was -0.195. As to `COc1cc(NC(=O)C2CCCN2S(=O)(=O)c2ccc3c(c2)CCC(=O)N3)cc(OC)c1` (centres undefined), the z-score is -0.729. `N#CCCN/N=C(/Cc1nc2ccccc2[nH]1)c1cccc(Cl)c1` came in with a z-score of 0.373. `COc1ccc(-c2cc(C(F)(F)F)nc(SCCC(=O)NCc3ccccc3)n2)cc1`: the z-score was -0.43.

As to `CC[N+](CC)(CC)C/C=C/CN1CCCCC1`, the z-score was -0.0395. In turn, `Cc1ccc(-c2cccc(OC(=O)c3ccccc3F)c2)cc1` returned a z-score of 0.225. On to `NNC(=O)c1nc(-c2ccccc2)n2c1CCCCC2`, for which the z-score was -0.165. Regarding `Cc1ccc(C(=O)O)cc1S(=O)(=O)N1CCCC1`, the z-score is 2.05.

As to `Cc1ccc(Nc2nc(N)c([N+](=O)[O-])c(N3CCCC(C)C3)n2)cc1C` (centres undefined), the z-score amounted to 2.26. `CCOc1ccc(NC(=O)C/C(N)=N/O)cc1` showed a z-score of 0.132. For the molecule `CC1=C(C#N)C(NC(=O)c2ccccc2Cl)(C(F)(F)F)C(=O)N1` (centres undefined), the z-score is -0.497. With `COCc1nnc(NS(=O)(=O)c2ccc(NC(C)=O)cc2)s1` the figure was -0.303. To `COc1ccc(C2SCCN2S(=O)(=O)c2ccc(F)cc2)cc1OC` (centres undefined) belongs 0.291.

The molecule `O=C1CC(N2CCN(C3CCc4ccccc4C3)CC2)C(=O)N1c1ccccc1` (centres undefined) displayed a z-score of 0.156. For the molecule `N#C/C(=C/c1ccc(-c2ccc(S(N)(=O)=O)cc2)o1)c1nc2ccccc2s1`, the z-score is -0.00234. For `CN(C)S(=O)(=O)Nc1ccc(C(=O)O)cc1`, the z-score is -0.343. Turning to `CCCCCNC(=O)C1CC=CCC1C(=O)O` (centres undefined), the z-score was -0.161. The molecule `Cc1cccc(-c2nc(C#N)c(N3CCCCCC3)o2)c1` registered a z-score of 0.223. Regarding `C/C=C/Cn1c(SCc2ccc(C)cc2)nc2c1c(=O)[nH]c(=O)n2C`, the z-score is -0.0511. Regarding `COc1ccccc1OCc1ccc(C(=O)NC(C)(C)C)o1`, the z-score was -0.289. Take `CCn1c(-c2ccc(C)cc2)nn(CC(=O)NCCc2ccccc2)c1=S`: the z-score was -0.272. For `Nc1ccc(C(=O)OCC(=O)NC2CCCc3ccccc32)cc1[N+](=O)[O-]` (centres undefined), the z-score is -0.347. `COc1ccc(-n2nnnc2-c2ccccc2)cc1` had a z-score of 0.0765. In the case of `COc1ccc(-c2nc(CSCC(=O)NCC3CCCO3)c(C)o2)cc1OC` (centres undefined), the z-score is -0.231. Consider `Brc1cccc(OCCOCCn2ccnc2)c1`, for which the z-score is -0.0613. Turning to `COc1ccc(C(CC(=O)O)NC(=O)c2ccco2)cc1` (centres undefined), the z-score was -0.0992. Regarding `CCOC(=O)/C(C#N)=C/c1cn(CCC(=O)O)nc1-c1ccccc1`, the z-score was -0.252. In the case of `COC(=O)c1ccc(COc2ccc3c4c(c(=O)oc3c2)CCC4)o1`, the z-score came to 0.0799. Regarding `O=C1CN(C(=O)COC(=O)CNC(=O)c2ccccc2)c2ccccc2N1`, the z-score is -0.585. Take `CCC(Cc1ccccc1)NC(=O)C1CCN(S(=O)(=O)c2c(C)noc2C)CC1` (centres undefined): the z-score was -0.318. As for `COc1ccc(/C=N/N=C2/NC(=O)C(CC(=O)O)S2)cc1OCc1ccccc1Cl` (centres undefined), the z-score was -0.138.

`Cc1cc(C)nc(NCC(O)CNc2ccccc2C)n1` (centres undefined) gave a z-score of 0.0393.

On to `CCOC(=O)C(C(=O)N(C)C)c1ncc(C(F)(F)F)cc1Cl` (centres undefined), for which the z-score is 0.00131. With `Cc1c(Br)cc(C(=O)N2CCCCCC2)c(C)c1C`, the z-score was -0.28. As to `CCNc1ccc(Br)cc(C(=O)/C=C/c2ccccc2Cl)c1=O`, the z-score is 0.225.

The record behind these values is PubChem BioAssay AID488969 (Vanderbilt High Throughput Screening Facility, 2010).
